Laboratory results from EPA's CvTdb concentration-time database.
This continues a long series; more values of the same kind are listed elsewhere.

Columns and labels:
Test in all cases: concentration in plasma after dosing
[1] = test system: Rat; conditions: dosed: Perfluorodecanoic acid, 20 mg/kg, oral, Female, Harlan Sprague Dawley
[2] = test system: Rat; conditions: dosed: Perfluorodecanoic acid, 20 mg/kg, oral, Female, Harlan Sprague Dawley; remark: listed apart in the source
[3] = test system: Rat; conditions: dosed: Perfluorodecanoic acid, 2 mg/kg, oral, Male, Harlan Sprague Dawley
[4] = test system: Rat; conditions: dosed: Perfluorodecanoic acid, 2 mg/kg, oral, Male, Harlan Sprague Dawley; remark: listed apart in the source
[5] = test system: Rat; conditions: dosed: Perfluorodecanoic acid, 20 mg/kg, oral, Male, Harlan Sprague Dawley
[6] = test system: Rat; conditions: 24 h; dosed: Perfluorooctane Sulfonate; 20 mg/kg; oral; Male; Harlan Sprague Dawley
[7] = test system: Rat; conditions: 6 h; dosed: Perfluorooctane Sulfonate; 2 mg/kg; oral; Female; Harlan Sprague Dawley
[8] = test system: Rat; conditions: dosed: Perfluorooctane Sulfonate, 2 mg/kg, oral, Female, Harlan Sprague Dawley
[9] = test system: Rat; conditions: 1848 h; dosed: Perfluorooctane Sulfonate; 2 mg/kg; oral; Female; Harlan Sprague Dawley
[10] = test system: Rat; conditions: dosed: Perfluorooctane Sulfonate, 20 mg/kg, oral, Female, F344
[11] = test system: Rat; conditions: 3360 h; dosed: Perfluorooctane Sulfonate; 20 mg/kg; oral; Male; Harlan Sprague Dawley
[12] = test system: Rat; conditions: dosed: Perfluorooctane Sulfonate, 20 mg/kg, oral, Male, Harlan Sprague Dawley
[13] = test system: Rat; conditions: dosed: Perfluorooctanoic acid, 6 mg/kg, oral, Male, Harlan Sprague Dawley
[14] = test system: Rat; conditions: 3 h; dosed: Perfluorooctanoic acid; 12 mg/kg; oral; Male; Harlan Sprague Dawley
[15] = test system: Rat; conditions: dosed: Fluorotelomer alcohol 8+2, 48 mg/kg, oral, Male, Harlan Sprague Dawley
[16] = test system: Rat; conditions: 48 h; dosed: Fluorotelomer alcohol 8+2; 160 mg/kg; oral; Female; Harlan Sprague Dawley
[17] = test system: Rat; conditions: dosed: Fluorotelomer alcohol 8+2, 24 mg/kg, oral, Male, Harlan Sprague Dawley
[18] = test system: Rat; conditions: 192 h; dosed: Perfluorooctanoic acid; 12 mg/kg; oral; Male; Harlan Sprague Dawley
[19] = test system: Rat; conditions: 24 h; dosed: Perfluorooctanoic acid; 12 mg/kg; oral; Male; Harlan Sprague Dawley
[20] = test system: Rat; conditions: 9 h; dosed: Fluorotelomer alcohol 8+2; 24 mg/kg; oral; Male; Harlan Sprague Dawley
[21] = test system: Rat; conditions: 3 h; dosed: Fluorotelomer alcohol 8+2; 24 mg/kg; oral; Male; Harlan Sprague Dawley
[22] = test system: Rat; conditions: 192 h; dosed: Fluorotelomer alcohol 8+2; 24 mg/kg; oral; Male; Harlan Sprague Dawley
[23] = test system: Rat; conditions: 3 h; dosed: Fluorotelomer alcohol 8+2; 40 mg/kg; oral; Female; Harlan Sprague Dawley
[24] = test system: Rat; conditions: dosed: Perfluorooctanoic acid, 6 mg/kg, iv, Male, F344
[25] = test system: Rat; conditions: 3 h; dosed: Fluorotelomer alcohol 8+2; 160 mg/kg; oral; Female; Harlan Sprague Dawley
[26] = test system: Rat; conditions: 24 h; dosed: Perfluorooctanoic acid; 12 mg/kg; oral; Male; Harlan Sprague Dawley; remark: listed apart in the source
[27] = test system: Rat; conditions: 192 h; dosed: Fluorotelomer alcohol 8+2; 24 mg/kg; oral; Male; Harlan Sprague Dawley; remark: listed apart in the source
[28] = test system: Rat; conditions: dosed: Perfluorooctanoic acid, 40 mg/kg, iv, Male, F344
[29] = test system: Rat; conditions: 9 h; dosed: Fluorotelomer alcohol 8+2; 24 mg/kg; oral; Male; Harlan Sprague Dawley; remark: listed apart in the source
[30] = test system: Rat; conditions: 9 h; dosed: Fluorotelomer alcohol 8+2; 160 mg/kg; oral; Female; Harlan Sprague Dawley
[31] = test system: Rat; conditions: dosed: Perfluorooctanoic acid, 320 mg/kg, oral, Female, Harlan Sprague Dawley
[32] = test system: Rat; conditions: 12 h; dosed: Perfluorooctanoic acid; 12 mg/kg; oral; Male; Harlan Sprague Dawley
[33] = test system: Rat; conditions: 6 h; dosed: Fluorotelomer alcohol 8+2; 24 mg/kg; oral; Male; Harlan Sprague Dawley
[34] = test system: Rat; conditions: 6 h; dosed: Fluorotelomer alcohol 8+2; 24 mg/kg; oral; Male; Harlan Sprague Dawley; remark: listed apart in the source
[35] = test system: Rat; conditions: 3 h; dosed: Perfluorooctanoic acid; 80 mg/kg; oral; Female; Harlan Sprague Dawley
[36] = test system: Rat; conditions: dosed: Fluorotelomer alcohol 8+2, 24 mg/kg, oral, Male, Harlan Sprague Dawley; remark: listed apart in the source

O=C(O)C(F)(F)C(F)(F)C(F)(F)C(F)(F)C(F)(F)C(F)(F)C(F)(F)C(F)(F)C(F)(F)F [Perfluorodecanoic acid]
Conditions	concentration in plasma [ng/mL]
[1], 2 h	62800
[1], 528 h	40600
[1], 3360 h	8000
[2], 12 h	108000
[2], 1200 h	22100
[3], 6 h	7240
[3], 864 h	2910
[4], 2 h	6370
[4], 528 h	4050
[4], 3360 h	703
[5], 2 h	56700
[5], 528 h	26000
[5], 3360 h	3160

O=S(=O)([O-])C(F)(F)C(F)(F)C(F)(F)C(F)(F)C(F)(F)C(F)(F)C(F)(F)C(F)(F)F [Perfluorooctane Sulfonate]
Conditions	concentration in plasma [ng/mL]
[6]	93800
[7]	5860
[9]	1880
[11]	9590

Conditions	concentration in plasma [ng/mL]
[8], 1 h	3180
[8], 528 h	4790
[10], 12 h	109000
[10], 528 h	68800
[12], 1 h	43900
[12], 192 h	67200
[12], 2520 h	11200

O=C(O)C(F)(F)C(F)(F)C(F)(F)C(F)(F)C(F)(F)C(F)(F)C(F)(F)F [Perfluorooctanoic acid]
Conditions	concentration in plasma [ng/mL]
[13], 1 h	23500
[13], 24 h	40200
[13], 864 h	5920
[15], 1 h	440
[15], 24 h	1410
[17], 0.75 h	230
[17], 48 h	937
[24], 5 min	71900
[24], 6 h	47800
[24], 528 h	6460
[28], 0.5 h	234000
[28], 12 h	25600
[31], 3 h	364000
[31], 24 h	358000
[36], 0.25 h	23.4
[36], 24 h	1100

Conditions	concentration in plasma [ng/mL]
[14]	76400
[16]	74.8
[18]	40000
[19]	81100
[20]	1110
[21]	827
[22]	591
[23]	1150
[25]	4530
[26]	77500
[27]	744
[29]	925
[30]	4980
[32]	76200
[33]	905
[34]	726
[35]	26500
